Positions count from the first letter of the chain named. Names may count otherwise. These are yes or no findings as the source states them, for the method shown. Some entries that bind do so weakly or less than the wild type. Each block holds one binder with its values, some of them ahead of it.
Biological target: phyB N-terminus (N-terminal 621 aa of phyB) fused to the GAL4 DNA-binding domain (Arabidopsis) (UniProt P14713)
Assay: two-hybrid; plate growth assay, strain AH109 pre-transformed with pBAC-N (phyB-N as bait), PIF variants in pGAD; selection plates -W/L/H, 1 mM 3AT, 40 ug/ml X-alpha-Gal; R light 0.9 umoles m^-2 s^-1

Chains of the proteins cited; added tags and fusions are not shown. Residues count along the entry.
UniProt P14713, residues 1-621: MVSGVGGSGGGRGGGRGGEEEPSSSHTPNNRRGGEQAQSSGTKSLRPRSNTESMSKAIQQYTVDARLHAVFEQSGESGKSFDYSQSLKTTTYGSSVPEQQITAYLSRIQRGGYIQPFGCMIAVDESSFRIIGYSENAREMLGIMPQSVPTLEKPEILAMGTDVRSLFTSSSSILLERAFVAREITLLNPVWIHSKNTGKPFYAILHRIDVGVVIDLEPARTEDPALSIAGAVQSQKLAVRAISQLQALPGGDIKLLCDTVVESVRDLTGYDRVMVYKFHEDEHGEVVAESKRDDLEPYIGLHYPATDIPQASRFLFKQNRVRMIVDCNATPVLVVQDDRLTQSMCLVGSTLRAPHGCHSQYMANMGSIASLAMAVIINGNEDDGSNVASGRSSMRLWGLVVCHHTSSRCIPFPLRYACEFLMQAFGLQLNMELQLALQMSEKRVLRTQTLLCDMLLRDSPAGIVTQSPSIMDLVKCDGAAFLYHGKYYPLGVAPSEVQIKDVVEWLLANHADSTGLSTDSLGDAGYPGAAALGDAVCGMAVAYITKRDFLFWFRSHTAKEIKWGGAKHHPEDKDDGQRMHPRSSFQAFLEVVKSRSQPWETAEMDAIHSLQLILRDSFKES

binding: binds
B1: PIF5, wild type, in pGAD (protein, UniProt Q84LH8 1-444)
chain: MEQVFADWNFEDNFHMSTNKRSIRPEDELVELLWRDGQVVLQSQARREPSVQVQTHKQETLRKPNNIFLDNQETVQKPNYAALDDQETVSWIQYPPDDVIDPFESEFSSHFFSSIDHLGGPEKPRTIEETVKHEAQAMAPPKFRSSVITVGPSHCGSNQSTNIHQATTLPVSMSDRSKNVEERLDTSSGGSSGCSYGRNNKETVSGTSVTIDRKRKHVMDADQESVSQSDIGLTSTDDQTMGNKSSQRSGSTRRSRAAEVHNLSERRRRDRINERMKALQELIPHCSRTDKASILDEAIDYLKSLQMQLQVMWMGSGMAAAAAAAASPMMFPGVQSSPYINQMAMQSQMQLSQFPVMNRSAPQNHPGLVCQNPVQLQLQAQNQILSEQLARYMGGIPQMPPAGNQMQTVQQQPADMLGFGSPAGPQSQLSAPATTDSLHMGKIG

binding: no binding
B2: PIF5 with the APB-domain residue E31 exchanged to valine, in pGAD (protein, UniProt Q84LH8 1-444)
chain: B1 chain with E31V

binding: no binding
B3: PIF5 with the APB-domain residue E31 exchanged to alanine, in pGAD (protein, UniProt Q84LH8 1-444)
chain: B1 chain with E31A

binding: binds
B4: PIF5 W91A in pGAD (protein, UniProt Q84LH8 1-444)
chain: B1 chain with W91A

binding: binds
B5: PIF1, wild type, in pGAD (protein, UniProt Q8GZM7 1-478)
chain: MHHFVPDFDTDDDYVNNHNSSLNHLPRKSITTMGEDDDLMELLWQNGQVVVQNQRLHTKKPSSSPPKLLPSMDPQQQPSSDQNLFIQEDEMTSWLHYPLRDDDFCSDLLFSAAPTATATATVSQVTAARPPVSSTNESRPPVRNFMNFSRLRGDFNNGRGGESGPLLSKAVVRESTQVSPSATPSAAASESGLTRRTDGTDSSAVAGGGAYNRKGKAVAMTAPAIEITGTSSSVVSKSEIEPEKTNVDDRKRKEREATTTDETESRSEETKQARVSTTSTKRSRAAEVHNLSERKRRDRINERMKALQELIPRCNKSDKASMLDEAIEYMKSLQLQIQMMSMGCGMMPMMYPGMQQYMPHMAMGMGMNQPIPPPSFMPFPNMLAAQRPLPTQTHMAGSGPQYPVHASDPSRVFVPNQQYDPTSGQPQYPAGYTDPYQQFRGLHPTQPPQFQNQATSYPSSSRVSSSKESEDHGNHTTG

binding: no binding
B6: PIF1 E41V in pGAD (protein, UniProt Q8GZM7 1-478)
chain: B5 chain with E41V

binding: no binding
B7: PIF1 with the APB-domain residue E41 exchanged to alanine, in pGAD (protein, UniProt Q8GZM7 1-478)
chain: B5 chain with E41A

Reference: PMC4911399
